Experimental data: PubChem BioAssay AID1508642 (National Center for Advancing Translational Sciences (NCATS), 2021)
The campaign covered roughly 43,000 compounds. About 200 (0.47%) were called active. Not shown: some 12% with an inconclusive outcome. Calls follow the shape of the dose curve; as a rule, active = well fitted cell-killing curve with a large enough effect; inconclusive = small, poorly fitted or top-dose-only effect, or effect the other way; inactive = flat fitted curve, though single readings scatter. This is one part of the list.

Assay: Cell viability qHTS assay in S16 Pmp22-F2sN cells; also: nearly all actives have a fitted effect of over 65% in size
Details: S16 Pmp22-F2sN Schwann cells viability, CellTiter-Glo, 24 h; series mostly up to 57.5 µM; activity change, negative = cytotoxicity: at the top concentration
Outline: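 Viability was measured by CellTiter-Glo luminescence (15 min, room temperature). This followed 24 h at 37 °C of compound exposure (23 nL pin transfer) in S16 Pmp22-F2sN Schwann cells, 500-1,000 per well.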
% is scaled to controls: 0 for no effect and ±100 for the full control effect; potency is read from the fitted curve at half-maximal effect.

Compound | activity change, negative = cytotoxicity | Potency
CCN(CC)CCCNC(=O)c1nn(-c2ccc(OC)c(Cl)c2)c(=O)c2c1c1ccccc1n2C | inactive: 17.8% | –
CCOC(=O)C1CCN(C(=O)C2CCN(c3nnc(C)c4c(C)n(-c5ccccc5)nc34)CC2)CC1 | inactive: 18.3% | –
CCCC(=O)Nc1cc(C(=O)NCc2ccc(OC)cc2)ccc1S(=O)(=O)c1ccc(Cl)cc1 | inactive: -9.67% | –
Cc1nn(CC(=O)NCc2ccccc2Cl)c(=O)c2cccn12 | inactive: 15.6% | –
CCOC(=O)c1ccccc1NC(=O)N1CCCN(S(=O)(=O)c2ccc3c(ccn3CC)c2)CC1 | inactive: -0.378% | –
Cc1cccc(-c2nc(CCNC(=O)c3ccccc3Br)cs2)c1 | inactive: -10.2% | –
O=C(Nc1cc(F)ccc1F)c1ccc2c(c1)nnn2C1CCCC1 | inactive: 2.18% | –
CCc1ccc(CNC(=O)C2CCCN(c3nn4cc(-c5ccc(F)cc5)nc4s3)C2)cc1 (configuration not stated) | inactive: -4.35% | –
COC(=O)c1cc2oc3ccccc3c2n1Cc1c(C)cc(C)cc1C | inactive: -1.79% | –
COCCCNC(=O)CSc1nc(-c2ccc(OC)c(OC)c2)[nH]c1-c1ccc(F)cc1 | inactive: -2.89% | –
Cc1cc(C)c2c(=O)cc(C(=O)NCc3ccc(S(N)(=O)=O)cc3)oc2c1 | inactive: 9.46% | –
CCc1ccc(NC(=O)CCc2nnc3n(C)c(=O)c4sccc4n23)cc1 | inactive: 0.186% | –
Cc1ccc(C2=NC(c3ccccc3)=Nc3ccc(Cl)cc3N2)cc1 | inactive: 1.59% | –
Cc1nc2cccnc2n1-c1cccc(C(=O)NCCc2ccc(S(N)(=O)=O)cc2)c1 | inactive: 4.22% | –
Cc1nn2c(=O)cc(COC(=O)COc3ccc(F)cc3)nc2s1 | inactive: 0.791% | –
COc1cc2ccccc2cc1C(=O)Nc1cccc(-c2nc3cc(C)ccc3o2)c1C | inactive: 5.89% | –
Cc1cccc(NC(=O)C2CCCN(S(=O)(=O)c3ccc(Br)s3)C2)c1 (configuration not stated) | inactive: 5.58% | –
Cc1ccc(OCC(=O)Nc2ccc3nc(SCCOc4ccccc4)sc3c2)cc1 | inactive: 1.43% | –
CCOC(=O)Cn1c(=O)oc2cc(S(=O)(=O)N3CCC(C(=O)OCC)CC3)ccc21 | inactive: 4.79% | –
COc1ccc(NC(=O)Cn2nnc3sc4c(c3c2=O)CCCC4)cc1 | inactive: 4.02% | –
Cc1ccc(NC(=O)CSc2nnc(-c3ccc(Br)cc3)o2)c(C)c1 | inactive: 21.4% | –
Cc1cc(C)c(NC(=O)CSc2nc3ccncc3[nH]2)c(C)c1 | inactive: -2.48% | –
Cc1ccc(NC(=O)CN2C(=O)COc3ccc(S(=O)(=O)Nc4ccccc4)cc32)c(C)c1 | inactive: 2.6% | –
COc1ccc(CNC(=O)c2ccc3nc(C(C)C)oc3c2)cc1OC | – | active: 28.2 µM
CCOC(=O)C1CCCN(c2ncnc3c2nnn3C)C1 (configuration not stated) | inactive: -2.56% | –

Compound | activity change, negative = cytotoxicity | Potency
O=C(Nc1cccc(C(F)(F)F)c1)c1ccc2snnc2c1 | inactive: -2.32% | –
CC(=O)c1ccc(NC(=O)Cn2c(=O)nc(-c3ccccc3)c3cc(Cl)ccc32)cc1 | inactive: 7.03% | –
CCOc1ccc(-c2nnc(SCC(=O)c3ccc(Br)cc3)n2-c2ccccc2)cc1 | inactive: -2.29% | –
CCOc1ccc(CCNC(=O)c2cc3c(s2)-c2c(C)cccc2OC3)cc1 | inactive: 8.6% | –
O=C(CN1C(=O)CCc2cc(S(=O)(=O)N3CCOCC3)ccc21)NCc1ccc(Cl)cc1 | inactive: 5.37% | –
COCCn1c(SCC(=O)c2c[nH]c3ccccc23)nc2cc(C(=O)NC(C)C)ccc2c1=O | inactive: -20.5% | –
COCCCNC(=O)c1ccc(C)c(-n2c(C)nc3cccnc32)c1 | inactive: 9.48% | –
Cc1nc2ccn(Cc3cccnc3)c(=O)c2cc1C(=O)Nc1ccc(F)cc1F | inactive: -0.723% | –
O=S(=O)(Nc1ccc(F)cc1F)c1ccc(-n2cccn2)cc1 | inactive: 0.0149% | –
CCN(CC)c1ccc2cc(-c3nc(-c4ccccc4F)no3)c(=O)oc2c1 | inactive: 13.4% | –
COc1cc(NC(=O)NCCN2CCN(c3ccccc3)CC2)cc(OC)c1OC | inactive: 4.51% | –
COc1ccc(C(=O)NCCn2cc(SC(C)c3ccccc3)c3ccccc32)cc1OC (configuration not stated) | inactive: -12.6% | –
Cc1ccc(N(C)C(=O)CCS(=O)(=O)c2cc3c(cc2Cl)NC(=O)CO3)cc1 | inactive: -3.38% | –
O=C(NCc1cccs1)c1ccc(CSc2nc3ccncc3n2Cc2ccccc2)cc1 | inactive: -8.54% | –
CC1CCC(NC(=O)c2ccc(CS(=O)(=O)c3cccc(C(F)(F)F)c3)o2)CC1 (configuration not stated) | inactive: 0.662% | –
CCOc1ccc(S(=O)(=O)NCCc2csc3nc(-c4ccc(F)cc4)nn23)cc1 | inactive: -18.9% | –
Cc1ccc(C)c(Cn2c(=O)n(Cc3ccccc3)c(=O)c3c2c2cc(C)ccc2n3C)c1 | inactive: 23.4% | –
COc1cc(NC(=O)CNS(=O)(=O)c2cccs2)cc(OC)c1OC | inactive: 4.76% | –
Fc1ccc(CSc2nc(NCc3ccccc3)c3ccccc3n2)cc1 | inactive: -12.1% | –
COc1ccc(-c2cc(C(=O)Nc3cccc(O)c3)on2)cc1OC | inactive: 4.6% | –
COc1ccc(CNC(=O)Cn2c(=O)cc(C)c3c(C)nn(-c4cccc(Cl)c4C)c32)cc1 | inactive: 6.53% | –
Cc1ccc(C(=O)Nc2ccc(S(=O)(=O)Nc3onc(C)c3C)cc2)cc1 | inactive: 0.541% | –
CCOC(=O)c1ccc(NC(=O)Cn2c(=O)cc(C(F)(F)F)c3c(C)nn(C)c32)cc1 | inactive: 0.271% | –
COc1ccccc1CCNC(=O)Cc1c(C)c2cc3c(C)coc3cc2oc1=O | inactive: 16% | –
O=C(c1cc2ccccc2oc1=O)N1CCN(c2ccc(F)cc2)CC1 | inactive: -2.92% | –

Compound | activity change, negative = cytotoxicity | Potency
Cc1cc(C)c2c(CC(=O)Nc3ccc(S(=O)(=O)N4CCCCC4)cc3)coc2c1 | inactive: -3.31% | –
Cc1cccc(CSCc2ccc(C(=O)NCCc3ccccc3)o2)c1 | inactive: 7.16% | –
CCOC(=O)c1ccc(Nc2c(-c3cccc(O)c3)nc3nc[nH]n23)cc1 | inactive: -22.3% | –
CCN(CC)CCN(C(=O)c1ccco1)c1nc2cc(C)cc(C)c2s1 | inactive: 2.36% | –
CCOc1cc(-c2ccc(OC(=O)c3ccc(C)cc3)c(OC)c2)cc(=O)c2c(C)oc(C)c12 | inactive: -9.03% | –
CC(=O)c1ccc(NC(=O)CN(C)S(=O)(=O)c2cc3c(cc2Cl)NC(=O)CO3)cc1 | inactive: -9.93% | –
CCOc1ccc(OCC)c(NC(=O)C(NS(=O)(=O)c2cccs2)c2ccccc2)c1 (configuration not stated) | inactive: 3.18% | –
COc1ccc(C(=O)Nc2cc(S(=O)(=O)c3ccc(Cl)cc3)c(O)c(C)c2C)cc1 | inactive: -4.52% | –
COc1ccccc1NC(=O)Cn1nc(-c2ccc(C)cc2)c2c(c1=O)CCCC2 | inactive: 1.03% | –
Cc1cccc(C)c1NC(=O)Cn1c(=O)n(Cc2ccc3c(c2)OCO3)c(=O)c2oc3ccccc3c21 | inactive: -1.64% | –
CCOc1cc(C(=O)Nc2ccc(-c3nc4ccccc4s3)cc2Cl)cc(OCC)c1OCC | inactive: 3.35% | –
CCc1ccc(-n2nc3cc(C)c(NC(=O)c4cc(OC)cc(OC)c4)cc3n2)cc1 | inactive: -3.17% | –
Cc1ccc(CNC(=O)c2c(C)oc3nc(C)nc(N4CCOCC4)c23)cc1 | inactive: 15.1% | –
CCOc1ccc(S(=O)(=O)n2nc(C)c(S(=O)(=O)N3CCCCC3)c2C)cc1 | inactive: -1.71% | –
O=C(Nc1ccc(Cl)cc1C(F)(F)F)c1cc(S(=O)(=O)N2CCOCC2)ccc1F | inactive: -25.1% | –
COc1cc(CN2CCc3nc(N4CCN(c5ccccn5)CC4)ncc3C2)cc(OC)c1OC | – | active: 11.2 µM
COC(=O)c1ccccc1NS(=O)(=O)c1ccc2c(c1)CCCN2C(C)=O | inactive: -0.366% | –
CC(=O)c1cc(-c2ccccc2)n(CCC(=O)NC(C)c2ccccc2)c1C (configuration not stated) | inactive: -15.8% | –
COc1ccc(C(=O)Nc2cc3c(cc2N2CCCC2)n(C)c(=O)c(=O)n3C)cc1OC | inactive: -3.54% | –
CCCC(=O)n1nc(-c2cccnc2)nc1NCc1ccc(OC)cc1 | inactive: -3.26% | –
Cc1nn(CCCC(=O)NCc2ccccc2)c(=O)c2cc3sccc3n12 | inactive: 11.6% | –
COc1ccc(N2CCN(c3ncnc4c3cnn4C)CC2)cc1 | inactive: -19.2% | –
CCN(CC)S(=O)(=O)c1ccc2c(c1)N(CC(=O)Nc1ccccc1F)C(=O)C1CCCN21 (configuration not stated) | inactive: 1.02% | –
CCCNC(=O)Cn1c(=O)n(CC2CCC(C(=O)NC)CC2)c(=O)c2sccc21 (configuration not stated) | inactive: -4.74% | –
Cc1ccc(NC(=O)/C(C#N)=C/c2ccc(-c3ccc(Cl)c(C(=O)O)c3)o2)cc1C | inactive: 7.47% | –

Compound | activity change, negative = cytotoxicity | Potency
COc1ccc(Cn2c(C(=O)O)c(CNCCc3ccco3)c3ccc(OC)cc32)cc1 | inactive: 0.7% | –
O=C1CS(=O)(=O)C2(C(=O)N(Cc3ccccc3Cl)c3ccccc32)N1c1ccc(F)cc1 (configuration not stated) | inactive: 2.35% | –
CCOc1cccc(NC(=O)C2CC(=O)N(CC)C(=Nc3ccc(F)cc3)S2)c1 (configuration not stated) | inactive: 24% | –
CCOc1ccc(CCNC(=O)c2cc3cccc4c3n2CCS4)cc1 | inactive: -3.89% | –
COc1cccc(NC(=O)C2CCCN(S(=O)(=O)c3cn(C(C)C)cn3)C2)c1 (configuration not stated) | inactive: -4.77% | –
COCCCNC(=O)c1cc2cc(S(=O)(=O)N3CCCCC3)ccc2n1C | inactive: -6.55% | –
Cc1cc(C)c(NC(=O)CSc2ncc3c(n2)-c2cc(Cl)ccc2N(C)S3(=O)=O)c(C)c1 | inactive: 0.924% | –
Cc1cccc(C(=O)Nc2ccc(S(=O)(=O)N3CCC(c4nc5ccccc5s4)CC3)cc2)c1 | inactive: 5% | –
CN(C(=O)CSc1nnc(NC(=O)Nc2ccccc2)s1)c1ccccc1 | inactive: -10% | –
COc1cc2ccccc2cc1C(=O)Nc1cccc(-c2nc3cc(C)c(C)cc3o2)c1 | inactive: 18% | –
O=C(NCC(c1cccnc1)N1CCc2ccccc21)c1cccc(Br)c1 (configuration not stated) | inactive: -28% | –
CC(C)NC(=O)C1CCC(Cn2c(=O)c3sccc3n(Cc3ccc(F)cc3)c2=O)CC1 (configuration not stated) | inactive: -0.165% | –
COc1ccc(-n2ncc(C(=O)NCc3ccco3)c2C2CCN(C(=O)OC(C)(C)C)CC2)cc1 | inactive: 2.18% | –
Brc1cccc(-c2nnn3c2nc(NCc2ccc4c(c2)OCO4)c2ccccc23)c1 | inactive: 8.11% | –
Cc1ccc(NC(=O)CSc2nnc3ccc4ccccc4n23)cc1 | inactive: 2.87% | –
CCc1ccc(NC(=O)c2ccc(-c3ccccc3)s2)cc1 | inactive: -5.21% | –
O=C(NCCN1CCN(c2cccc(Cl)c2)CC1)Nc1ccccc1 | inactive: -16.9% | –
O=C(CC1N=C2c3ccccc3N=C(SCc3ccc(F)cc3)N2C1=O)NCc1ccc2c(c1)OCO2 (configuration not stated) | inactive: -12.5% | –
Cc1cccc(NC(=O)c2ccc(-c3ccccc3)s2)c1 | inactive: 2.75% | –
CCc1cnc2c(c1SCC(=O)NCc1ccccc1Cl)c(=O)n(C)c(=O)n2C | inactive: -2.55% | –
CCC(Oc1ccccc1)C(=O)Nc1nnc(S(=O)(=O)N(CC)CC)s1 (configuration not stated) | inactive: -15% | –
CCOC(=O)C1CCN(c2ncnc3c2nc2n3CCCCC2)CC1 | inactive: 23.9% | –
